Measurements reported in PubChem BioAssay AID624417 (National Center for Advancing Translational Sciences (NCATS), 2012).
Among all 410,000 compounds or so, about 6,400 (1.6%) were called active. This list was built around the results that the source calls inconclusive (neither active nor inactive); the mix of calls is not that of the screen. The call rests on the fitted dose curve; in most records, active means well fitted inhibition curve with a large enough effect; inconclusive means small, poorly fitted or top-dose-only effect; inactive means no such curve, though single readings can be large or run the other way. Potencies of inconclusive entries are doubtful fits and often do not repeat.

Biological target: Glucagon-like peptide 1 receptor (Homo sapiens) (UniProt P43220)
Assay: qHTS of GLP-1 Receptor Inverse Agonists (Inhibition Mode); further: nearly all actives have a fitted effect of over 55% in size
Settings: HEK293 GLP-1R CRE-luciferase, luminescence, 24 h, GLP-1R form is constitutively active; activity change, negative = inhibition: at 38.3 µM (top of the series) unless noted
Summary of the method: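 Inverse agonists were sought by their lowering of basal cAMP reporter luciferase output in HEK293 cells stably carrying constitutively active human GLP-1R, after 24 h compound treatment.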
On the % scale 0 is the no-effect control and ±100 the full control effect; potency means the concentration at half of the fitted maximal effect; tags describe the fitted curve by direction and shape.

UniProt P43220, sequence (P43220 whole entry, looked up): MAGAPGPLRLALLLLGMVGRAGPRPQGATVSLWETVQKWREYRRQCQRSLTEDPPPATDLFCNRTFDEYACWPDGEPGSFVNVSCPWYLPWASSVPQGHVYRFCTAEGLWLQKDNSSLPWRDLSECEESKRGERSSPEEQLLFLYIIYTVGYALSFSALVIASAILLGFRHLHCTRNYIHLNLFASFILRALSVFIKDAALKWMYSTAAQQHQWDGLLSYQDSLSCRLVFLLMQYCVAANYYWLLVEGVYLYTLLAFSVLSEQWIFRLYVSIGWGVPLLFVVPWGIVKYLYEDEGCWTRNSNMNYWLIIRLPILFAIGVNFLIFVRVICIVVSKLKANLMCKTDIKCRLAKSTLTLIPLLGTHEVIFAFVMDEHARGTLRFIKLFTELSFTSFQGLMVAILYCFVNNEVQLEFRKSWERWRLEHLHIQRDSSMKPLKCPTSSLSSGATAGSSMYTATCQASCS

Potency, active:
CN(CC(=O)NC(=O)NCc1ccccc1)Cc1cccc(Cl)c1Cl 10 µM
O=C(Cc1ccc(Br)cc1)N1CCN(c2ccccc2O)CC1 11.2 µM
CCc1c(C)sc2c1CCN(C(=O)Nc1cc(OC)c(OC)c(OC)c1)C2c1ccccc1 (centres undefined) 10 µM
CC(C)CN=C(NS(=O)(=O)c1ccccc1)C(Cl)(Cl)Cl 7.94 µM

Potency, inconclusive:
CC(C)(C)c1ccc(OCC(=O)N(Cc2cccs2)C2CCS(=O)(=O)C2)cc1 (centres undefined) 12.6 µM [inhibitor, partial curve, poor fit]
Cc1onc(-c2ccccc2)c1C(=O)N(C)CC(=O)Nc1ccc(F)c(F)c1F 10 µM [inhibitor, single point]
CC1(c2ccc(Cl)cc2Cl)OCC(Cn2ccnc2)O1 (centres undefined) 7.08 µM [inhibitor, partial curve, poor fit]
CCCN(CC(=O)Nc1ccc(C)cc1Br)CC(=O)Nc1ccc(F)c(F)c1F 10 µM [inhibitor, partial curve, poor fit]
COc1ccccc1NC(=S)N1CCN(C/C=C/c2ccccc2)CC1 20 µM [inhibitor, single point]
O=C1c2[nH]nc(-c3ccccc3O)c2C(c2ccccc2)N1Cc1ccco1 (centres undefined) 10 µM [inhibitor, partial curve, poor fit]
CCC1CCCCN1CCCNC(=O)CN1C(=O)COc2ccc(S(=O)(=O)N3CCC(C)CC3)cc21 (centres undefined) 2.82 µM [inhibitor, partial curve, poor fit]
Cc1ccc(C(=O)NCCc2ccccc2)cc1 1.26 µM [inhibitor, full curve, poor fit]
CCSc1nnc(NC(=O)Cc2ccc(OC)c(S(=O)(=O)N3CCOCC3)c2)s1 28.2 µM [inhibitor, partial curve, poor fit]
Cc1ccc(S(=O)(=O)N2CCN(C(=O)COC(=O)Cc3c(F)cccc3Cl)CC2)c(C)c1 12.6 µM [inhibitor, single point]
CC(C)Cn1c(SCC#N)nc2ccccc2c1=O 10 µM [inhibitor, single point]
CCCOc1c(OC)cccc1C1CC(=O)Nc2cc3c(cc21)OCO3 (centres undefined) 15.8 µM [inhibitor, partial curve, poor fit]
COc1cc2c(cc1OC)C(C)N(C(=O)Nc1ccc(F)cc1)CC2 (centres undefined) 6.31 µM [inhibitor, partial curve, poor fit]
COCc1c(C(=O)Nc2ccc3nc(N4CCOCC4)sc3c2)oc2ccccc12 20 µM [inhibitor, single point]
CC(C)N(Cc1ccccc1)C(=O)CN1C(=O)NC2(CCCCCC2)C1=O 12.6 µM [inhibitor, single point]
CCCCCCCCCc1nc2sc3c(c2c(=O)n1NC(=O)c1ccc([N+](=O)[O-])cc1)CC(C)(C)OC3 11.2 µM [inhibitor, partial curve, poor fit]
CCOc1ccc(-c2nnn(CC#N)n2)cc1OC 28.2 µM [inhibitor, single point]
Cc1cc(C)cc(NC(=S)NC2CC3CCCC(C2)N3C2CCCC2)c1 (centres undefined) 11.2 µM [inhibitor, partial curve, poor fit]
Cc1cccc(C)c1OCc1cc(C(=O)N2CCCC2c2nonc2C)no1 (centres undefined) 28.2 µM [inhibitor, single point]
Cc1oc(S(=O)(=O)N2CCCCC2)cc1NC(=O)Nc1ccc(F)cc1 10 µM [inhibitor, partial curve, poor fit]
COc1ccccc1/C=C/C(=O)c1ccc(NC(C)=O)cc1 28.2 µM [inhibitor, single point]
Cc1cc(Br)ccc1NC(=S)NC1CCCC1 3.55 µM [inhibitor, partial curve, poor fit]
O=[N+]([O-])c1cc(S(=O)(=O)N2CCCCCC2)ccc1F 12.6 µM [inhibitor, partial curve, poor fit]
Cc1ccc(C(=O)OCC(=O)Nc2cccc(S(=O)(=O)N3CCCCC3)c2)s1 22.4 µM [inhibitor, single point]
CN(CC(=O)Nc1ccc([N+](=O)[O-])cc1Br)Cc1c(F)cccc1Cl 14.1 µM [inhibitor, partial curve, poor fit]
O=C(NCC1(c2ccccc2)CCCC1)c1ccccc1 6.31 µM [inhibitor, partial curve, poor fit]
O=S1(=O)N[C@@H](Cc2ccccc2)COc2cccc(N3CCN(Cc4ccccc4F)CC3)c21 14.1 µM [inhibitor, single point]
CSc1nc(C)cc(SCC(=O)Nc2ccc(Cl)cc2Cl)n1 28.2 µM [inhibitor, single point]
COc1ccc(CCNC(=O)c2oc3ccc(OC)cc3c2C)cc1 15.8 µM [inhibitor, partial curve, poor fit]
CCC1CN(C(=O)Nc2ccc(C)cc2)c2cc(C)ccc2O1 (centres undefined) 14.1 µM [inhibitor, partial curve, poor fit]
O=C(CNCCC1=CCCCC1)Nc1ccccc1N1CCCCC1 28.2 µM [inhibitor, single point]
COc1ccc(-n2cc(CNCCc3cscn3)c(-c3ccccc3Cl)n2)cc1 11.2 µM [inhibitor, partial curve, poor fit]
COc1ccc(CNC(=O)C2CCN(c3cc(C(=O)Nc4cccc(OC)c4)ccn3)CC2)cc1 10 µM [inhibitor, partial curve]
CCCC(c1nnnn1C(C)(C)CC)N(CCCO)Cc1cc2cc(C)cc(C)c2[nH]c1=O (centres undefined) 28.2 µM [inhibitor, single point]
Nc1cc(-c2ccc(Cl)cc2)nn1S(=O)(=O)c1cccc2nsnc12 28.2 µM [inhibitor, single point]
CN1CCC[C@@H]1CCNC(=O)c1c(-c2ccc3c(c2)OCO3)noc1-c1ccsc1 10 µM [inhibitor, single point]
Cc1ccc(NC(=O)CN(c2ccccc2)S(=O)(=O)N(C)C)cc1Cl 14.1 µM [inhibitor, single point]
COc1ccc(CNC(=O)C(c2ccccc2F)N(C(=O)c2csnn2)C2CC2)cc1 (centres undefined) 31.6 µM [inhibitor, partial curve, poor fit]
O=S(=O)(c1ccccc1)[C@@]1(c2ccccc2)C[C@@H]2ON=C(c3cccc(-c4ccccc4)c3)[C@@H]2C1 3.16 µM [inhibitor, full curve]
Oc1ccc(N=Cc2ccc(-c3cccs3)s2)cc1 1.26 µM [inhibitor, partial curve, poor fit]
COc1ccc(NC(=O)CSc2nc3c(sc4ccccc43)c(=O)n2CCCN2CCCC2)cc1 5.62 µM [inhibitor, full curve]
CC(=O)Nc1cc(-c2ccccc2F)cn2c(-c3ccccc3)cnc12 31.6 µM [inhibitor, single point]
Cc1ccc2c(c1)C(=O)C(=O)N2CC1COc2ccccc2O1 (centres undefined) 28.2 µM [inhibitor, single point]
Cc1ccc(NC(=O)CN(C)S(=O)(=O)c2ccc(Br)s2)cc1F 11.2 µM [inhibitor, partial curve, poor fit]
CC1CN(C)C(C)C/C1=N\Oc1ccc([N+](=O)[O-])cc1 (centres undefined) 14.1 µM [inhibitor, partial curve, poor fit]

Activity change, negative = inhibition, inactive:
O=C(O)c1ccc2c(c1)C1C=CCC1C(c1ccncc1)N2 (centres undefined) -4.4%
Cc1cc2cc3c(=O)[nH]c(=O)cc-3n(CC(O)C(O)C(O)CO)c2cc1C (centres undefined) 12.2%
CCN(CC)CCOC(=O)c1ccc(NC(=O)c2cc3cccc(OC)c3oc2=O)cc1 -15.7%
CCc1cccc(NC(=O)CSc2ncc3c(n2)-c2ccc(Cl)cc2N(Cc2ccccc2)S3(=O)=O)c1 -0.742%
CN(C(=O)Nc1ccc(Cl)c(Cl)c1)c1ccccc1C(=O)O -0.686%
O=C(NCCN1CCN(c2ccccc2)CC1)C1CCCN(S(=O)(=O)c2cnc[nH]2)C1 (centres undefined) 3.91%
CCOC(=O)Cc1ccc(NC(=O)Nc2cccc(OCc3cc(=O)n4cc(C)ccc4n3)c2)cc1 1.89%
CC(Oc1ccccc1)C(=O)Nc1ccc(S(=O)(=O)N2CCN(C)CC2)cc1 (centres undefined) -11.6%
COc1ccc2oc(=O)c(C(=O)NCc3cccnc3)cc2c1 9.27%
COc1ccc(NC(=O)c2cn(CC(C)C)c(=O)c3cc(OC)c(OC)cc23)cc1Cl 30.5%
CN(C)CCCn1c(SCCN2C(=O)c3ccccc3C2=O)nc2ccccc2c1=O 0.122%
Cc1ccc(NC(=O)NCc2ccc3c(c2)CCN3C(=O)c2ccccc2)c(Cl)c1 -23.7%
CCOC(=O)c1sc(NC(=O)CSc2n[nH]c(-c3ccncc3)n2)c(C#N)c1C 5.63%
C/C(=N\Nc1ccccn1)c1ccc(OC(F)F)cc1 -20.7%
COc1ccc(OC)c(S(=O)(=O)Nc2cc3c(cc2C)n(C)c(=O)c(=O)n3C)c1 3.12%
